{"source": "the supplement of paper PMC8728848", "experiment_in_all_cases": "glycan array binding signal (z-score within array); higher = stronger binding", "conditions_in_all_cases": "glycan notation: IUPAC condensed, linker removed", "key": {"[1]": {"molecular_target": "GlcNAc(a1-3)Gal(b1-4)GlcNAc", "procedure,_shortened": "(§1)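 From the Consortium for Functional Glycomics database, 3228 arrays were curated, keeping only those whose protein sequence was available. Binding is given as a within-array Z-score averaged across arrays sharing a protein sequence and across linkers. Negative Z-scores can be read as non-binding.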"}, "[2]": {"molecular_target": "GlcNAc(a1-4)Gal(b1-3)GlcNAc", "procedure,_shortened": "as §1"}, "[3]": {"molecular_target": "GlcNAc(a1-4)Gal(b1-4)GalNAc", "procedure,_shortened": "as §1"}, "[4]": {"molecular_target": "GlcNAc(a1-4)Gal(b1-4)GlcNAc", "procedure,_shortened": "as §1"}, "[5]": {"molecular_target": "GlcNAc(a1-4)Gal(b1-4)GlcNAc(b1-3)Gal(b1-4)Glc", "procedure,_shortened": "as §1"}, "[6]": {"molecular_target": "GlcNAc(a1-4)Gal(b1-4)GlcNAc(b1-3)Gal(b1-4)GlcNAc", "procedure,_shortened": "as §1"}, "[7]": {"molecular_target": "GlcNAc(a1-4)Gal(b1-4)GlcNAc(b1-3)Gal(b1-4)GlcNAc(b1-3)Gal(b1-4)GlcNAc", "procedure,_shortened": "as §1"}, "[8]": {"molecular_target": "GlcNAc(a1-4)Gal(b1-4)GlcNAc(b1-3)Gal(b1-4)[Fuc(a1-3)]GlcNAc(b1-3)Gal(b1-4)[Fuc(a1-3)]GlcNAc", "procedure,_shortened": "as §1"}, "[9]": {"molecular_target": "GlcNAc(a1-6)Gal(b1-4)GlcNAc", "procedure,_shortened": "as §1"}, "[10]": {"molecular_target": "GlcNAc(b1-2)Gal(b1-3)GalNAc", "procedure,_shortened": "as §1"}, "[11]": {"molecular_target": "GlcNAc(b1-2)Gal(b1-3)GlcNAc", "procedure,_shortened": "as §1"}, "[12]": {"molecular_target": "GlcNAc(b1-2)Man(a1-3)[GlcNAc(b1-2)Man(a1-6)]Man(b1-4)GlcNAc(b1-4)GlcNAc", "procedure,_shortened": "as §1"}, "[13]": {"molecular_target": "GlcNAc(b1-2)Man(a1-3)[GlcNAc(b1-2)Man(a1-6)]Man(b1-4)GlcNAc(b1-4)[Fuc(a1-6)]GlcNAc", "procedure,_shortened": "as §1"}, "[14]": {"molecular_target": "GlcNAc(b1-2)Man(a1-3)[GlcNAc(b1-4)][GlcNAc(b1-2)Man(a1-6)]Man(b1-4)GlcNAc(b1-4)GlcNAc", "procedure,_shortened": "as §1"}, "[15]": {"molecular_target": "GlcNAc(b1-2)Man(a1-3)[GlcNAc(b1-4)][GlcNAc(b1-2)Man(a1-6)]Man(b1-4)GlcNAc(b1-4)[Fuc(a1-6)]GlcNAc", "procedure,_shortened": "as §1"}, "[16]": {"molecular_target": "GlcNAc(b1-2)[GlcNAc(b1-4)]Man(a1-3)[GlcNAc(b1-2)Man(a1-6)]Man(b1-4)GlcNAc(b1-4)GlcNAc", "procedure,_shortened": "as §1"}, "[17]": {"molecular_target": "GlcNAc(b1-2)[GlcNAc(b1-4)]Man(a1-3)[GlcNAc(b1-4)][GlcNAc(b1-2)Man(a1-6)]Man(b1-4)GlcNAc(b1-4)GlcNAc", "procedure,_shortened": "as §1"}, "[18]": {"molecular_target": "GlcNAc(b1-2)[GlcNAc(b1-4)]Man(a1-3)[GlcNAc(b1-4)][GlcNAc(b1-2)[GlcNAc(b1-6)]Man(a1-6)]Man(b1-4)GlcNAc(b1-4)GlcNAc", "procedure,_shortened": "as §1"}, "[19]": {"molecular_target": "GlcNAc(b1-2)[GlcNAc(b1-4)]Man(a1-3)[GlcNAc(b1-4)][GlcNAc(b1-2)[GlcNAc(b1-6)]Man(a1-6)]Man(b1-4)GlcNAc(b1-4)[Fuc(a1-6)]GlcNAc", "procedure,_shortened": "as §1"}, "[20]": {"molecular_target": "GlcNAc(b1-2)[GlcNAc(b1-6)]Man(a1-6)[GlcNAc(b1-2)Man(a1-3)]Man(b1-4)GlcNAc(b1-4)GlcNAc", "procedure,_shortened": "as §1"}, "[21]": {"molecular_target": "GlcNAc(b1-2)[GlcNAc(b1-6)]Man(a1-6)[GlcNAc(b1-2)Man(a1-3)]Man(b1-4)GlcNAc(b1-4)[Fuc(a1-6)]GlcNAc", "procedure,_shortened": "as §1"}, "[22]": {"molecular_target": "GlcNAc(b1-2)[GlcNAc(b1-6)]Man(a1-6)[GlcNAc(b1-4)][GlcNAc(b1-2)Man(a1-3)]Man(b1-4)GlcNAc(b1-4)GlcNAc", "procedure,_shortened": "as §1"}, "GlcNAc(b1-3)Fuc": {"molecular_target": "GlcNAc(b1-3)Fuc", "procedure,_shortened": "as §1"}, "GlcNAc(b1-3)Gal": {"molecular_target": "GlcNAc(b1-3)Gal", "procedure,_shortened": "as §1"}, "[23]": {"molecular_target": "GlcNAc(b1-3)Gal(b1-3)GalNAc", "procedure,_shortened": "as §1"}, "GlcNAc(b1-3)Gal(b1-4)Glc": {"molecular_target": "GlcNAc(b1-3)Gal(b1-4)Glc", "procedure,_shortened": "as §1"}, "[24]": {"molecular_target": "GlcNAc(b1-3)Gal(b1-4)GlcNAc", "procedure,_shortened": "as §1"}, "[25]": {"molecular_target": "GlcNAc(b1-3)Gal(b1-4)GlcNAc(b1-2)Man(a1-3)[GlcNAc(b1-3)Gal(b1-4)GlcNAc(b1-2)Man(a1-6)]Man(b1-4)GlcNAc(b1-4)GlcNAc", "procedure,_shortened": "as §1"}, "[26]": {"molecular_target": "GlcNAc(b1-3)Gal(b1-4)GlcNAc(b1-2)Man(a1-3)[GlcNAc(b1-3)Gal(b1-4)GlcNAc(b1-2)Man(a1-6)]Man(b1-4)GlcNAc(b1-4)[Fuc(a1-6)]GlcNAc", "procedure,_shortened": "as §1"}, "[27]": {"molecular_target": "GlcNAc(b1-3)Gal(b1-4)GlcNAc(b1-2)[GlcNAc(b1-3)Gal(b1-4)GlcNAc(b1-6)]Man(a1-6)[GlcNAc(b1-3)Gal(b1-4)GlcNAc(b1-2)Man(a1-3)]Man(b1-4)GlcNAc(b1-4)GlcNAc", "procedure,_shortened": "as §1"}, "[28]": {"molecular_target": "GlcNAc(b1-3)Gal(b1-4)GlcNAc(b1-3)Gal(b1-4)GlcNAc", "procedure,_shortened": "as §1"}, "[29]": {"molecular_target": "GlcNAc(b1-3)Gal(b1-4)GlcNAc(b1-3)Gal(b1-4)GlcNAc(b1-2)Man(a1-3)[GlcNAc(b1-3)Gal(b1-4)GlcNAc(b1-3)Gal(b1-4)GlcNAc(b1-2)Man(a1-6)]Man(b1-4)GlcNAc(b1-4)GlcNAc", "procedure,_shortened": "as §1"}, "[30]": {"molecular_target": "GlcNAc(b1-3)Gal(b1-4)GlcNAc(b1-3)Gal(b1-4)GlcNAc(b1-2)Man(a1-3)[GlcNAc(b1-3)Gal(b1-4)GlcNAc(b1-3)Gal(b1-4)GlcNAc(b1-2)Man(a1-6)]Man(b1-4)GlcNAc(b1-4)[Fuc(a1-6)]GlcNAc", "procedure,_shortened": "as §1"}, "[31]": {"molecular_target": "GlcNAc(b1-3)Gal(b1-4)GlcNAc(b1-3)Gal(b1-4)GlcNAc(b1-2)[GlcNAc(b1-3)Gal(b1-4)GlcNAc(b1-3)Gal(b1-4)GlcNAc(b1-6)]Man(a1-6)[GlcNAc(b1-3)Gal(b1-4)GlcNAc(b1-3)Gal(b1-4)GlcNAc(b1-2)Man(a1-3)]Man(b1-4)GlcNAc(b1-4)[Fuc(a1-6)]GlcNAc", "procedure,_shortened": "as §1"}, "[32]": {"molecular_target": "GlcNAc(b1-3)Gal(b1-4)GlcNAc(b1-3)Gal(b1-4)GlcNAc(b1-3)Gal(b1-4)GlcNAc(b1-2)Man(a1-3)[GlcNAc(b1-3)Gal(b1-4)GlcNAc(b1-3)Gal(b1-4)GlcNAc(b1-3)Gal(b1-4)GlcNAc(b1-2)Man(a1-6)]Man(b1-4)GlcNAc(b1-4)GlcNAc", "procedure,_shortened": "as §1"}, "[33]": {"molecular_target": "GlcNAc(b1-3)Gal(b1-4)GlcNAc(b1-3)Gal(b1-4)GlcNAc(b1-3)Gal(b1-4)GlcNAc(b1-2)Man(a1-3)[GlcNAc(b1-3)Gal(b1-4)GlcNAc(b1-3)Gal(b1-4)GlcNAc(b1-3)Gal(b1-4)GlcNAc(b1-2)Man(a1-6)]Man(b1-4)GlcNAc(b1-4)[Fuc(a1-6)]GlcNAc", "procedure,_shortened": "as §1"}, "[34]": {"molecular_target": "GlcNAc(b1-3)Gal(b1-4)GlcNAc(b1-3)Gal(b1-4)GlcNAc(b1-3)Gal(b1-4)GlcNAc(b1-2)[GlcNAc(b1-3)Gal(b1-4)GlcNAc(b1-3)Gal(b1-4)GlcNAc(b1-3)Gal(b1-4)GlcNAc(b1-6)]Man(a1-6)[GlcNAc(b1-3)Gal(b1-4)GlcNAc(b1-3)Gal(b1-4)GlcNAc(b1-3)Gal(b1-4)GlcNAc(b1-2)Man(a1-3)]Man(b1-4)GlcNAc(b1-4)[Fuc(a1-6)]GlcNAc", "procedure,_shortened": "as §1"}}, "note": "The list shows a part of the results."}
{"binder": "Epa12 (Candida glabrata) (protein) MGSSHHHHHHSSGLVPRGSHMLEPDNSLQIFDSFLSNPSKYPLGCSPKITNPKKGLSMELYSYPYRKKGSHPCWDPAYLDPNFPRVGYKKNKLIARVDGVSGDINFNFHPKRQCTPIADYLPPNFNYNEPITTTNFTMLLYGYFKPKVTGLHTFDISADDLLFMNFGAGNAFDCCRRDSTADTFGNYVAWAIWGRRIVRNKLTVRLDKGIYYPLRLFFNNRDYYGQMRLTFKTEHGSERITDFSDYFFSVDDTSEGCPGLITYESECADVKSSTVLETDYITIQAEKE", "values": [{"measurement": "glycan array binding signal (z-score)", "setting": "[1]", "value": -0.35}, {"measurement": "glycan array binding signal (z-score)", "setting": "[2]", "value": -0.483}, {"measurement": "glycan array binding signal (z-score)", "setting": "[3]", "value": -0.356}, {"measurement": "glycan array binding signal (z-score)", "setting": "[4]", "value": -0.263}, {"measurement": "glycan array binding signal (z-score)", "setting": "[5]", "value": -0.589}, {"measurement": "glycan array binding signal (z-score)", "setting": "[6]", "value": -0.33}, {"measurement": "glycan array binding signal (z-score)", "setting": "[7]", "value": -0.33}, {"measurement": "glycan array binding signal (z-score)", "setting": "[8]", "value": -0.289}, {"measurement": "glycan array binding signal (z-score)", "setting": "[9]", "value": 1.99}, {"measurement": "glycan array binding signal (z-score)", "setting": "[10]", "value": -0.357}, {"measurement": "glycan array binding signal (z-score)", "setting": "[11]", "value": -0.289}, {"measurement": "glycan array binding signal (z-score)", "setting": "[12]", "value": -0.315}, {"measurement": "glycan array binding signal (z-score)", "setting": "[13]", "value": -0.354}, {"measurement": "glycan array binding signal (z-score)", "setting": "[14]", "value": -0.179}, {"measurement": "glycan array binding signal (z-score)", "setting": "[15]", "value": -0.395}, {"measurement": "glycan array binding signal (z-score)", "setting": "[16]", "value": -0.323}, {"measurement": "glycan array binding signal (z-score)", "setting": "[17]", "value": -0.203}, {"measurement": "glycan array binding signal (z-score)", "setting": "[18]", "value": -0.341}, {"measurement": "glycan array binding signal (z-score)", "setting": "[19]", "value": -0.325}, {"measurement": "glycan array binding signal (z-score)", "setting": "[20]", "value": -0.332}, {"measurement": "glycan array binding signal (z-score)", "setting": "[21]", "value": -0.384}, {"measurement": "glycan array binding signal (z-score)", "setting": "[22]", "value": -0.38}, {"measurement": "glycan array binding signal (z-score)", "setting": "GlcNAc(b1-3)Fuc", "value": -0.36}, {"measurement": "glycan array binding signal (z-score)", "setting": "GlcNAc(b1-3)Gal", "value": -0.378}, {"measurement": "glycan array binding signal (z-score)", "setting": "[23]", "value": -0.308}, {"measurement": "glycan array binding signal (z-score)", "setting": "GlcNAc(b1-3)Gal(b1-4)Glc", "value": -0.316}, {"measurement": "glycan array binding signal (z-score)", "setting": "[24]", "value": -0.352}, {"measurement": "glycan array binding signal (z-score)", "setting": "[25]", "value": -0.343}, {"measurement": "glycan array binding signal (z-score)", "setting": "[26]", "value": -0.335}, {"measurement": "glycan array binding signal (z-score)", "setting": "[27]", "value": -0.298}, {"measurement": "glycan array binding signal (z-score)", "setting": "[28]", "value": 0.325}, {"measurement": "glycan array binding signal (z-score)", "setting": "[29]", "value": -0.373}, {"measurement": "glycan array binding signal (z-score)", "setting": "[30]", "value": -0.353}, {"measurement": "glycan array binding signal (z-score)", "setting": "[31]", "value": -0.275}, {"measurement": "glycan array binding signal (z-score)", "setting": "[32]", "value": -0.316}, {"measurement": "glycan array binding signal (z-score)", "setting": "[33]", "value": -0.364}, {"measurement": "glycan array binding signal (z-score)", "setting": "[34]", "value": -0.272}]}
